The source gives no read counts; variants with many changes may rest on few reads.
B1: CPEB3 Ribozyme (parent)
chain: UAACAGGGGGCCACAGCAGAAGCGUUCACGUCGCAGCCCCUGUCAGAUUCUGGUGAAUCUGCGAAUUCUGCUGUAUAUCUC

Variants of: B1
Assay: self-cleavage, relative activity (ratio to wild type); higher = more cleavage; in vitro, sequencing
In short: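 After error-prone PCR and barcoding, CPEB3 ribozyme mutant libraries were transcribed with T7 RNA polymerase at 37°C for 5 hours, then given 15 min with DNase I before an EDTA stop, and they cleaved during both steps. Reverse transcription with template switching preceded Illumina sequencing. Relative activity divides a variant's cleaved/total read fraction by the unmutated ribozyme's. At least 5 reads were required per variant, and three batches were averaged.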

Variant	self-cleavage
UAACAGGGGGCCACAGCAGGAGCGUUCGCGUCGCAGCCCCUGUCAGAUUCAGGUGAAUCUGCGAAUUCUGCUGUAUAUCUC [A20G A28G U51A]	0.31
UAACAGGGGGCCACAGCAGGAGCGUUCGCGUCGCAGCCCCUGUCAGAUUCUGGCGAAUCUGCGAAUUCUGGUGUAUAUCUC [A20G A28G U54C C71G]	0.16
UAACAGGGGGCCACAGCAGGAGCGUUCGCGUCGCAGCCCCUGUCAGAUUCUGGUGAAACUGCGAAUUCUGCAGUAUAUCUC [A20G A28G U58A U72A]	0.09
UAACAGGGGGCCACAGCAGGAGCGUUCGCGUCGCAGCCCCUGUCAGAUUCUGGUGAAUCCGCGAAUUCUGCCGUAUAUCUC [A20G A28G U60C U72C]	0.11
UAACAGGGGGCCACAGCAGGAGCGUUCGCGUCGCAGCCCCUGUCAGAUUCUGGUGAAUCUGCGAAUUCCGCUGUAUAUCUC [A20G A28G U69C]	0.28
UAACAGGGGGCCACAGCAGGAGCGUUCGCGUCGCAGCCCCUGUCAGAUUCUGGUGAAUCUGCGAAUUCUGCUGCAUAUCUC [A20G A28G U74C]	0.54
UAACAGGGGGCCACAGCAGGAGCGUUCUCGUCGCAGCCCCUGUCAGAUUCUGGUGGAUCUGCGAAUUCUGCUGUAUAUCUC [A20G A28U A56G]	0.51
UAACAGGGGGCCACAGCAGGAGCGUUCUCGUCGCAGCCCCUGUCAGAUUCUGGUGGAUCUGCGAACUCUGCUGUAUAUCUC [A20G A28U A56G U66C]	0.41
UAACAGGGGGCCACAGCAGGAGCGUUCUCGUCGCAGCCCCUGUCAGAUUCUGGUGAGUCAGCGAACUCUGCUGUAUAUCUC [A20G A28U A57G U60A U66C]	0.03
UAACAGGGGGCCACAGCAGGAGCGUUCUCGUCGCAGCCCCUGUCAGAUUCUGGUGAGUCCGCGAAUUCUGCUGUAUAUCUC [A20G A28U A57G U60C]	0.21
UAACAGGGGGCCACAGCAGGAGCGUUCUAGACGCAGCCCCUGUCAGAUUCUGGUGAAUCAGCGAAUUCUGCUGUAUGUCUC [A20G A28U C29A U31A U60A A77G]	0.05
UAACAGGGGGCCACAGCAGGAGCGUUCUCGUCGCAGCCCCUAUCAGAUUCUGGUGAACCUGCGAAUUCUGCUGUAUAUCUC [A20G A28U G42A U58C]	0.18
UAACAGGGGGCCACAGCAGGAGCGUUCUCGACGCAGCCCCUGUCAUAUUCUGGCGAAACUGCGAAUUCUGCUGUAUAUCUC [A20G A28U U31A G46U U54C U58A]	0.05
UAACAGGGGGCCACAGCAGGAGCGUUCACGUCGCCGCCCCUGUCAGAUUCUGGUGAAUCUGCGAAUUCUGCUGUAUACCUC [A20G A35C U78C]	0.51
UAACAGGGGGCCACAGCAGGAGCGUUCACGUCGCGGCCCCUGUCGGACUCUGGUGAAUCUGCGAAUUCUGCUGUAUAUCUC [A20G A35G A45G U48C]	0.5
UAACAGGGGGCCACAGCAGGAGCGUUCACGUCGCGGCUCCUGUCAGGUUCUGGUGAAUCUGCGAAUUCUGCUGUAUAUCUC [A20G A35G C38U A47G]	0.64
UAACAGGGGGCCACAGCAGGAGCGUUCACGUCGCGGCCCCUGUCAGAUUCUGGUGAAUCUGCGAAUUCUACUGCAUAUCUC [A20G A35G G70A U74C]	1.11

Variant	self-cleavage
UAACAGGGGGCCACAGCAGGAGCGUUCACGUCGCGGCCCCCGUCAGAUUCUGGUGGAUCAGCGAAUUCUGCUGUAUAUCUC [A20G A35G U41C A56G U60A]	0.45
UAACAGGGGGCCACAGCAGGAGCGUUCACGUCGCGGCCCCUGACAGAUUCUGGUGAAUCUGCGAAUUCUGCUGUAUAUCUC [A20G A35G U43A]	1.3
UAACAGGGGGCCACAGCAGGAGCGUUCACGUCGCUGCCCCUGUCAGAUUCUGGUGAGUCUGCGAAUUCUGCUGUAUAUCUC [A20G A35U A57G]	0.33
UAACAGGGGGCCACAGCAGGAGCGUUCACGUCGCUGCCCCUGUCAGAUUCUGGUGAAUCUGCGGAUUCUGCUGUAUAUCUC [A20G A35U A64G]	0.27
UAACAGGGGGCCACAGCAGGAGCGUUCACGUCGCUGCCCCUGUCAGAUUCUGGUGAAUCUGCGAAUUCUGAUGUAUAUCUC [A20G A35U C71A]	0.11
UAACAGGGGGCCACAGCAGGAGCGUUCACGUCGCUGCCCCCGUCAGAUUCUGGUGAAUCUGCGAAUUCUGCUGUAUACCUC [A20G A35U U41C U78C]	0.38
UAACAGGGGGCCACAGCAGGAGCGUUCACGUCGCUGCCCCUGUCAGACUCUGGUGAAUCUGCGAAUUCUGCUGUAUAUCUC [A20G A35U U48C]	0.1
UAACAGGGGGCCACAGCAGGAGCGUUCACGUCGCUGCCCCUGUCAGAUUCAGGUGAAUCUGCGAAUUCUGCAGUACAUCUC [A20G A35U U51A U72A U76C]	0.13
UAACAGGGGGCCACAGCAGGAGCGUUCACGUCGCUGCCCCUGUCAGAUUCUGGUGAAUCUGCGAAUUCCGCUGUAUAUCUC [A20G A35U U69C]	0.32
UAACAGGGGGCCACAGCAGGAGCGUUCACGUCGCAGCCCCUGUCCGAUUCUGGUGAAUCCGCGAAUUCUGCUGUUUAUCUC [A20G A45C U60C A75U]	0.32
UAACAGGGGGCCACAGCAGGAGCGUUCACGUCGCAGCCCCUGUCGGAUUCUGGUGAAUCUGCGAUUUCUGCUGUAUAUCUC [A20G A45G A65U]	0.13
UAACAGGGGGCCACAGCAGGAGCGUUCACGUCGCAGCCCCUGUCGGAAUCUGGUGAAUCUGCGAAUUCUGCUGUAUAUCGC [A20G A45G U48A U80G]	0.03
UAACAGGGGGCCACAGCAGGAGCGUUCACGUCGCAGCCCCUGUCGGAUUCUGGUGAAUCUGCGAAUCCUGCUGUGUAUCUC [A20G A45G U67C A75G]	0.42
UAACAGGGGGCCACAGCAGGAGCGUUCACGUCGCAGCCCCUGUCGGAUUCUGGUGAAUCUGCGAAUUCAGCUGUAUAUCUC [A20G A45G U69A]	0.26
UAACAGGGGGCCACAGCAGGAGCGUUCACGUCGCAGCCCCUGUCGGAUUCUGGUGAAUCUGCGAAUUCUGCCGUAUAUCUC [A20G A45G U72C]	0.75
UAACAGGGGGCCACAGCAGGAGCGUUCACGUCGCAGCCCCUGUCAGGUUCUGGUGUAUCUGCGAAUUCUGCUGUAUAUCUC [A20G A47G A56U]	0.47
UAACAGGGGGCCACAGCAGGAGCGUUCACGUCGCAGCCCCUGUCAGGUUCUCGUGAGUCUGCGAAUUCUGCUGUAUGUCUC [A20G A47G G52C A57G A77G]	0.67

Source: the RNAGym collection of RNA variant scans (doi:10.1093/nar/gkz1192)
